Our source for the K (d, app) from RFC ATPase activity as a function of PCNA concentration (0 to 600 nM PCNA) values is publication PMC10165274.

For this test, the target named is N555-hRFC, N-terminal truncation variant of the human replication factor C clamp loader complex (human) (UniProt P35251).

As for “PCNA-C148S (a stretch of the chain, sequence left out) (natural protein)”, the K (d, app) from RFC ATPase activity as a function of PCNA concentration (0 to 600 nM PCNA) came to 200 nM.
Under “PCNA-S228I (a stretch of the chain, sequence left out) (natural protein)” stands 120 nM.
